Where “and” joins values, the source holds several entries; their conditions need not be identical. Equal values may be shown once. About 860 (0.43%) of roughly 200,000 compounds were called active. Inconclusive results, whose numbers are uncertain, are shown with a selection of clear calls. Calls come from the whole dose curve; as a rule, active = well fitted inhibition curve with a large enough effect; inconclusive = small, poorly fitted or top-dose-only effect; inactive = flat fitted curve, though single readings scatter. Where the call is inconclusive, the potency comes from a doubtful curve fit.
Biological target: Cruzipain (Trypanosoma cruzi) (UniProt P25779)
UniProt P25779, sequence (P25779 whole entry, looked up): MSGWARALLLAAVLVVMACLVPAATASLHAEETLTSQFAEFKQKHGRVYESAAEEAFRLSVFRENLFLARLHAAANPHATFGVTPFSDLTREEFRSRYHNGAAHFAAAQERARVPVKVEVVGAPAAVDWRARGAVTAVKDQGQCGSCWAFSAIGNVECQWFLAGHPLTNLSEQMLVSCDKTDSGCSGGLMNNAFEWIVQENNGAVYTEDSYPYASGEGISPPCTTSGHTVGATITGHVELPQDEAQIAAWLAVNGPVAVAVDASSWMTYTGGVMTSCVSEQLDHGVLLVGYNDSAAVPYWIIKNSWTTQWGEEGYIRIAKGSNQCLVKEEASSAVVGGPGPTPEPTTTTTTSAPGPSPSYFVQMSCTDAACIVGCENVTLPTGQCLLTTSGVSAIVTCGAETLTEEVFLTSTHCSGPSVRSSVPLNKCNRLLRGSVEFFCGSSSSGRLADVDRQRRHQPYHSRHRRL
Experiment: qHTS Assay for Promiscuous and Specific Inhibitors of Cruzain (with detergent); note: nearly all actives have a fitted effect of over 40% in size;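 for max response, negative = inhibition: plate controls were neutral wells for no effect and buffer without enzyme for full effect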
Details: purified cruzain, Z-FR-AMC fluorescence, 0.01% Triton
Method in brief: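 Compounds were screened in titration against cruzain (1.5 nM) with 0.01% Triton X-100 to counter colloidal aggregation. Activity was the AMC fluorescence increase over 60 s after adding 2 uM Z-FR-AMC at pH 5.5.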
Potency is the fitted concentration of half-maximal effect; tags give direction and shape of the fitted curve.

SMILES	max response, negative = inhibition	Potency
N=c1oc2ccccc2cc1-c1nc(-c2ccccc2)cs1	inactive: -14.5%	–
O=[N+]([O-])c1ccc(N2CCCC2)cc1N/N=C1\CN2CCC1CC2	–	inconclusive: 31.6 µM [inhibitor, single point]
C/C(=N/NC(N)=S)c1ccccc1[N+](=O)[O-]	–	active: 15.8 µM
CCN(CC(=O)NC(c1ccccc1)c1ccccc1)Cc1nc2ccccc2c(=O)[nH]1	–	inconclusive: 35.5 µM [inhibitor, single point]
COC(=O)N[C@H](C[N+](=O)[O-])C(C)(C)C	inactive: -4.45%	–
Cc1cccc(OCCSCc2nc3ccccc3[nH]2)c1	–	inconclusive: 31.6 µM [inhibitor, single point]
O=C1c2ccccc2C(=O)N1c1ccc(Cl)cc1	–	inconclusive: 25.1 µM [inhibitor, single point]
COc1ccc2cc(C(=O)N/N=C/c3sc4ccccc4c3O)ccc2c1	–	active: 28.2 µM
Cn1c(=O)c2sccc2n2c(CCC(=O)NCc3ccc(F)cc3)nnc12	inactive: 0.256%	–
CCOC(=O)c1c(C)[nH]c(C(=O)COC(=O)CNC(=O)C2CCCCC2)c1C	–	inconclusive: 10 µM [inhibitor, partial curve]
O=[N+]([O-])c1ccc(Nc2nc3ccccc3s2)cc1	–	active: 3.55 µM
Cc1ccc(C(=O)C(OC(=O)CNS(=O)(=O)c2ccccc2)c2ccccc2)cc1 (stereo not drawn)	–	inconclusive: 28.2 µM [inhibitor, single point]
COCCCNC(=O)c1cc2c(=O)n3cc(C)ccc3nc2nc1NCC1CCCO1 (stereo not drawn)	–	inconclusive: 28.2 µM [inhibitor, single point]
C=CCNc1ncnc2c1[nH]c1ccccc12	–	inconclusive: 17.8 µM [inhibitor, partial curve]
CC1=CC(C)(C)n2c(O)c(N=NC(N)=S)c3c(C)ccc1c32	–	inconclusive: 4.47 µM [inhibitor, partial curve]
O=C(NC1CCCC1)c1ccc2nc(-c3ccco3)c(-c3ccco3)nc2c1	–	active: 14.1 µM
O=C(O)CCC(=O)N1CCc2cc(S(=O)(=O)N(CCc3ccccc3)Cc3ccccc3)ccc21	–	inconclusive: 31.6 µM [inhibitor, single point]
Clc1ccc(-c2cn3cccnc3n2)cc1	–	inconclusive: 39.8 µM [inhibitor, single point]
Cc1ccc2nc(C3CCCN(C(=S)Nc4ccccc4C)C3)[nH]c2c1 (stereo not drawn)	–	inconclusive: 25.1 µM [inhibitor, single point]
CCCCCC(=O)Nc1nc2ccccc2[nH]1	–	inconclusive: 28.2 µM [inhibitor, single point]
CCOc1cccc2sc(N(Cc3cccnc3)C(=O)C3CCCCC3)nc12	inactive: -5.41%	–
CCOC(=O)C1CCN(C(=O)Nc2ccc3nc(-c4ccco4)c(-c4ccco4)nc3c2)CC1	–	active: 14.1 µM
COc1ccc(-c2[nH]n(-c3ccc([N+](=O)[O-])cc3)c(=O)c2C=NCc2ccc(F)cc2)cc1	inactive: -5.64%	–

SMILES	max response, negative = inhibition	Potency
Cc1ccc(C(=O)NCC(=O)OC(C)C(=O)NCCC2=CCCCC2)cc1C (stereo not drawn)	–	active: 22.4 µM
NCCOC[C@H](N)C(=O)O	inactive: 3.02%	–
COc1cc(Cn2c(N)c(C#N)c3nc4ccccc4nc32)cc(OC)c1	–	inconclusive: 31.6 µM [inhibitor, single point]
CC(OC(=O)CNS(=O)(=O)/C=C/c1ccccc1)C(=O)Nc1ccc(S(=O)(=O)N2CCCC2)cc1 (stereo not drawn)	–	inconclusive: 35.5 µM [inhibitor, single point]
Fc1ccc(Nc2nc(N3CCOCC3)c3ccccc3n2)cc1	–	inconclusive: 20 µM [inhibitor, partial curve]
O=C(/C=C/c1ccc2c(c1)OCO2)Nc1c(C(=O)O)[nH]c2ccccc12	–	inconclusive: 28.2 µM [inhibitor, single point]
CCOc1ccc(NC(=O)CN2C(=O)C(c3ccccc3)=NC23CCC(C)CC3)cc1 (stereo not drawn)	inactive: -9.96%	–
CCn1nc([N+](=O)[O-])c(C(C#N)c2nc3cc(C(F)(F)F)ccc3s2)c(Cl)c1=O (stereo not drawn)	–	active: 22.4 µM
CCCCN1C(=O)/C(=C\c2ccco2)C(=O)N(CCc2ccccc2)C1=O	–	inconclusive: 35.5 µM [inhibitor, single point]
CCCn1c(=N)c(C(=O)NC2CCCC2)cc2c(=O)n3cccc(C)c3nc21	–	inconclusive: 31.6 µM [inhibitor, single point]
COc1ccc(C(=O)NCC(=O)OCC(=O)c2ccc3c(c2)OCCO3)cc1	–	active: 15.8 µM
COCCn1c(=O)c(-c2cccc(C#N)c2)nc2cnc(N3CCN(C)CC3)nc21	–	inconclusive: 28.2 µM [inhibitor, single point]
CCC(CC)C(=O)Nc1ccc(-c2cn3cccnc3n2)cc1	–	inconclusive: 31.6 µM [inhibitor, single point]
CC(C)[C@@H]1C(=O)N(S(C)(=O)=O)[C@H]2CCN(C(=O)/C=C\CN3CCCCC3)[C@@H]12	inactive: -1.37%	–
COC(=O)N1C(C)=Cc2ccccc2C1C/C(C)=C/C(C)=O (stereo not drawn)	inactive: 1.69%	–
CCCCc1ccc(N=N/C(C(=O)Nc2ccc(NC(C)=O)cc2OC)=C(/C)O)cc1	–	active: 10 µM
CC(C)CC(NC(=O)c1ccccc1)C(=O)OCC(=O)Nc1ccc(Br)cn1 (stereo not drawn)	–	inconclusive: 22.4 µM [inhibitor, single point]
COc1ccc(C(=O)Nc2ccc(N3CCCC3)cc2)cc1	–	inconclusive: 28.2 µM [inhibitor, single point]
CC(C)OCCCn1c(=N)c(C(N)=S)cc2c(=O)n3ccccc3nc21	–	inconclusive: 25.1 µM [inhibitor, single point]
O=C(c1ccc2nc(-c3ccco3)c(-c3ccco3)nc2c1)N1CCN(c2ncccn2)CC1	–	active: 25.1 µM
O=C(O)Cc1cccc(OCCCN(Cc2cccc(C(F)(F)F)c2Cl)CC(c2ccccc2)c2ccccc2)c1	–	inconclusive: 31.6 µM [inhibitor, single point]
CCCCNC(=O)CSc1nc2ccccc2nc1Cc1ccccc1	inactive: 0.259%	–
O=C(c1ccco1)N(CCC(c1ccccc1)c1ccco1)Cc1ccccc1 (stereo not drawn)	–	inconclusive: 31.6 µM [inhibitor, single point]

SMILES	max response, negative = inhibition	Potency
Cc1ccc(-n2cc(C(=O)OCc3ccc(Cl)cc3)c3ccccc3c2=O)cc1	inactive: -0.833%	–
CC(Oc1ccc(Cl)cc1Cl)C(=O)Nc1ccc(S(=O)(=O)Nc2cnc3ccccc3n2)cc1 (stereo not drawn)	–	active: 22.4 µM
N#Cc1cc(-c2ccccc2)nc(Oc2ccccc2)n1	–	active: 15.8 µM
CCn1c(CN2CCC(C)CC2)nc2cc(NC(=O)c3cccc([N+](=O)[O-])c3)ccc21	inactive: -10.2%	–
COc1cccc(NC(=O)CSc2nnc(NC(=O)NC3CCCCC3)s2)c1	inactive: -7.43%	–
CC(=O)c1ccc(NC(=O)NCCc2c[nH]c3ccccc23)cc1	inactive: -13%	–
Fc1ccccc1-n1[nH]nnc1=S	–	active: 20 µM
Cc1cc(Oc2ccc(-c3nnc(-c4ccccc4)o3)cc2[N+](=O)[O-])ccc1Cl	inactive: 0.107%	–
CCOC(=O)C(C(=O)OCC)N(C#N)c1nc(OC)nc(N(C)C)n1	–	active: 3.55 µM
O=C(CSc1nc(O)cc(=O)n1-c1ccccc1)Nc1ccc2c3c(cccc13)CC2	–	active: 25.1 µM
COc1ccc2oc(-c3ccccc3)c(C(N)=O)c2c1	–	inconclusive: 25.1 µM [inhibitor, single point]
COc1cccc(-c2coc3c(C)c4oc(=O)c(CCC(=O)O)c(C)c4cc23)c1	–	inconclusive: 28.2 µM [inhibitor, single point]
COc1ccc(C2CC23N=C(c2ccccc2)OC3=O)cc1 (stereo not drawn)	–	inconclusive: 28.2 µM [inhibitor, single point]
COc1ccccc1CNC(=O)c1cnn2c(C)c(Cc3ccc(F)cc3)c(C)nc12	–	inconclusive: 6.31 µM [inhibitor, single point]
CNC(=O)Oc1ccc2c(c1)[C@@]1(C)CCN(C)C1N2C (stereo partly drawn)	inactive: -1.53% and inactive: 0.071% and inactive: 2.95%	–
C/C=C\C[C@H](C)[C@H](O)[C@H]1C(=O)N[C@@H](CC)C(=O)N(C)CC(=O)N(C)[C@@H](CC(C)C)C(=O)N[C@@H](C(C)C)C(=O)N(C)[C@@H](CC(C)C)C(=O)N[C@@H](C)C(=O)N[C@@H](C)C(=O)N(C)[C@@H](CC(C)C)C(=O)N(C)[C@@H](CC(C)C)C(=O)N(C)[C@@H](C(C)C)C(=O)N1C	inactive: -4.42%	–
Cc1cc(/C=N/NC(N)=S)c(C)n1-c1ccc(Cl)c(Cl)c1	–	inconclusive: 1.78 µM [inhibitor, full curve, poor fit]
O=C(CSc1nc2ccccc2[nH]1)NC1CCCc2ccccc21 (stereo not drawn)	–	inconclusive: 31.6 µM [inhibitor, single point]
CCc1cc2c(CN3CCN(CCO)CC3)cc(=O)oc2cc1O	–	inconclusive: 28.2 µM [inhibitor, single point]
CN1CC=C2C(C#N)=C(N)C(C#N)(C#N)[C@H](c3ccoc3)[C@H]2C1	–	inconclusive: 39.8 µM [inhibitor, single point]
O=S1(=O)c2ccccc2N=NN1Cc1cc(Cl)cc(Cl)c1	–	inconclusive: 31.6 µM [inhibitor, single point]
C=CCc1ccccc1OCC(O)CN1CCN(CCN2C(=O)c3cccc4cccc(c34)C2=O)CC1 (stereo not drawn)	–	inconclusive: 28.2 µM [inhibitor, single point]

Source: PubChem BioAssay AID1478 (National Center for Advancing Translational Sciences (NCATS), 2009)
